# From the supplement of paper PMC8728848
# The list shows a part of the results.
# B1: PILRa (Homo sapiens), Q9UKJ1 (protein)
# chain: MGRPLLLPLLPLLLPPAFLQPSGSTGSGPSYLYGVTQPKHLSASMGGSVEIPFSFYYPWELATAPDVRISWRRGHFHRQSFYSTRPPSIHKDYVNRLFLNWTEGQKSGFLRISNLQKQDQSVYFCRVELDTRSSGRQQWQSIEGTKLSITQAVTTTTQRPSSMTTTWRLSSTTTTTGLRVTQGKRRSDSWHISLETAVGVAVAVTVLGIMILGLICLLRWRRRKGQQRTKATTPAREPFQNTEEPYENIRNEGQNTDPKLNPKDDGIVYASLALSSSTSPRAPPSHRPLKSPQNETLYSVLKA
# Legend:
# Assay in all cases: glycan array binding signal (z-score within array); higher = stronger binding
# Conditions in all cases: glycan notation: IUPAC condensed, linker removed
# Man(a1-3)[Man(a1-6)]Man = biological target: Man(a1-3)[Man(a1-6)]Man
# Method in brief: (§1)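 The binding signal is a Z-score computed within each array and averaged over linkers. Arrays of the same protein sequence at different concentrations or buffers were also averaged together. Data originate from 3228 arrays in the Consortium for Functional Glycomics database, kept only where the protein sequence was available.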
# [1] = biological target: Man(a1-3)[Man(a1-6)]Man(a1-6)[Man(a1-2)Man(a1-3)]Man(b1-4)GlcNAc(b1-4)GlcNAc
# Method in brief: as §1
# [2] = biological target: Man(a1-3)[Man(a1-6)]Man(a1-6)[Man(a1-3)]Man
# Method in brief: as §1
# [3] = biological target: Man(a1-3)[Man(a1-6)]Man(a1-6)[Man(a1-3)]Man(b1-4)GlcNAc(b1-4)GlcNAc
# Method in brief: as §1
# [4] = biological target: Man(a1-3)[Man(a1-6)]Man(b1-4)GlcNAc(b1-4)GlcNAc
# Method in brief: as §1
# Man(a1-6)Man = biological target: Man(a1-6)Man
# Method in brief: as §1
# Man(b1-4)GlcNAc = biological target: Man(b1-4)GlcNAc
# Method in brief: as §1
# Neu5Ac(a2-3)Gal = biological target: Neu5Ac(a2-3)Gal
# Method in brief: as §1
# [5] = biological target: Neu5Ac(a2-3)Gal(b1-3)GalNAc
# Method in brief: as §1
# [6] = biological target: Neu5Ac(a2-3)Gal(b1-3)GalNAc(b1-3)Gal(a1-4)Gal(b1-4)Glc
# Method in brief: as §1
# [7] = biological target: Neu5Ac(a2-3)Gal(b1-3)GalNAc(b1-3)Gal(b1-4)GlcNAc
# Method in brief: as §1
# [8] = biological target: Neu5Ac(a2-3)Gal(b1-3)GalNAc(b1-4)[Neu5Ac(a2-3)]Gal(b1-4)Glc
# Method in brief: as §1
# [9] = biological target: Neu5Ac(a2-3)Gal(b1-3)GalNAc(b1-4)[Neu5Ac(a2-8)Neu5Ac(a2-3)]Gal(b1-4)Glc
# Method in brief: as §1
# [10] = biological target: Neu5Ac(a2-3)Gal(b1-3)GalNAc6S
# Method in brief: as §1
# [11] = biological target: Neu5Ac(a2-3)Gal(b1-3)GlcNAc
# Method in brief: as §1
# [12] = biological target: Neu5Ac(a2-3)Gal(b1-3)GlcNAc(b1-2)Man(a1-3)[Neu5Ac(a2-3)Gal(b1-3)GlcNAc(b1-2)Man(a1-6)]Man(b1-4)GlcNAc(b1-4)GlcNAc
# Method in brief: as §1
# [13] = biological target: Neu5Ac(a2-3)Gal(b1-3)GlcNAc(b1-3)Gal(b1-3)GlcNAc
# Method in brief: as §1
# [14] = biological target: Neu5Ac(a2-3)Gal(b1-3)GlcNAc(b1-3)Gal(b1-4)GlcNAc
# Method in brief: as §1
# [15] = biological target: Neu5Ac(a2-3)Gal(b1-3)GlcNAc(b1-3)GalNAc
# Method in brief: as §1
# [16] = biological target: Neu5Ac(a2-3)Gal(b1-3)GlcNAc6S
# Method in brief: as §1
# [17] = biological target: Neu5Ac(a2-3)Gal(b1-3)[Fuc(a1-4)]GlcNAc
# Method in brief: as §1
# [18] = biological target: Neu5Ac(a2-3)Gal(b1-3)[Fuc(a1-4)]GlcNAc(b1-3)Gal(b1-3)[Fuc(a1-4)]GlcNAc
# Method in brief: as §1
# [19] = biological target: Neu5Ac(a2-3)Gal(b1-3)[Fuc(a1-4)]GlcNAc(b1-3)Gal(b1-4)[Fuc(a1-3)]GlcNAc
# Method in brief: as §1
# [20] = biological target: Neu5Ac(a2-3)Gal(b1-3)[Neu5Ac(a2-3)Gal(b1-4)]GlcNAc
# Method in brief: as §1
# [21] = biological target: Neu5Ac(a2-3)Gal(b1-3)[Neu5Ac(a2-6)]GalNAc
# Method in brief: as §1
# Neu5Ac(a2-3)Gal(b1-4)Glc = biological target: Neu5Ac(a2-3)Gal(b1-4)Glc
# Method in brief: as §1
# [22] = biological target: Neu5Ac(a2-3)Gal(b1-4)GlcNAc
# Method in brief: as §1
# [23] = biological target: Neu5Ac(a2-3)Gal(b1-4)GlcNAc(b1-2)Man(a1-3)[GlcNAc(b1-2)Man(b1-4)GlcNAc(b1-2)Man(a1-6)]Man(b1-4)GlcNAc(b1-4)GlcNAc
# Method in brief: as §1
# [24] = biological target: Neu5Ac(a2-3)Gal(b1-4)GlcNAc(b1-2)Man(a1-3)[Neu5Ac(a2-6)Gal(b1-4)GlcNAc(b1-2)Man(a1-6)]Man(b1-4)GlcNAc(b1-4)GlcNAc
# Method in brief: as §1
# [25] = biological target: Neu5Ac(a2-3)Gal(b1-4)GlcNAc(b1-3)Gal
# Method in brief: as §1
# [26] = biological target: Neu5Ac(a2-3)Gal(b1-4)GlcNAc(b1-3)Gal(b1-3)GlcNAc
# Method in brief: as §1
# [27] = biological target: Neu5Ac(a2-3)Gal(b1-4)GlcNAc(b1-3)Gal(b1-4)GlcNAc
# Method in brief: as §1
# [28] = biological target: Neu5Ac(a2-3)Gal(b1-4)GlcNAc(b1-3)Gal(b1-4)GlcNAc(b1-3)Gal(b1-4)GlcNAc
# Method in brief: as §1
# [29] = biological target: Neu5Ac(a2-3)Gal(b1-4)GlcNAc(b1-3)Gal(b1-4)[Fuc(a1-3)]GlcNAc
# Method in brief: as §1
# [30] = biological target: Neu5Ac(a2-3)Gal(b1-4)GlcNAc(b1-3)GalNAc
# Method in brief: as §1
# [31] = biological target: Neu5Ac(a2-3)Gal(b1-4)GlcNAc(b1-6)[Gal(b1-3)]GalNAc
# Method in brief: as §1
# [32] = biological target: Neu5Ac(a2-3)Gal(b1-4)GlcNAc(b1-6)[Neu5Ac(a2-3)Gal(b1-3)]GalNAc
# Method in brief: as §1
# [33] = biological target: Neu5Ac(a2-3)Gal(b1-4)GlcNAc6S
# Method in brief: as §1
binder,measurement,setting,value
B1,glycan array binding signal (z-score),Man(a1-3)[Man(a1-6)]Man,-0.372
same,glycan array binding signal (z-score),[1],-0.215
same,glycan array binding signal (z-score),[2],-0.232
same,glycan array binding signal (z-score),[3],-0.16
same,glycan array binding signal (z-score),[4],-0.085
same,glycan array binding signal (z-score),Man(a1-6)Man,-0.187
same,glycan array binding signal (z-score),Man(b1-4)GlcNAc,-0.254
same,glycan array binding signal (z-score),Neu5Ac(a2-3)Gal,-0.314
same,glycan array binding signal (z-score),[5],-0.122
same,glycan array binding signal (z-score),[6],-0.314
same,glycan array binding signal (z-score),[7],-0.44
same,glycan array binding signal (z-score),[8],-0.281
same,glycan array binding signal (z-score),[9],-0.081
same,glycan array binding signal (z-score),[10],-0.182
same,glycan array binding signal (z-score),[11],0.854
same,glycan array binding signal (z-score),[12],-0.057
same,glycan array binding signal (z-score),[13],-0.15
same,glycan array binding signal (z-score),[14],-0.226
same,glycan array binding signal (z-score),[15],-0.354
same,glycan array binding signal (z-score),[16],-0.397
same,glycan array binding signal (z-score),[17],-0.307
same,glycan array binding signal (z-score),[18],-0.282
same,glycan array binding signal (z-score),[19],-0.241
same,glycan array binding signal (z-score),[20],-0.243
same,glycan array binding signal (z-score),[21],-0.132
same,glycan array binding signal (z-score),Neu5Ac(a2-3)Gal(b1-4)Glc,-0.248
same,glycan array binding signal (z-score),[22],-0.257
same,glycan array binding signal (z-score),[23],0.008
same,glycan array binding signal (z-score),[24],-0.293
same,glycan array binding signal (z-score),[25],-0.256
same,glycan array binding signal (z-score),[26],-0.212
same,glycan array binding signal (z-score),[27],1.17
same,glycan array binding signal (z-score),[28],-0.327
same,glycan array binding signal (z-score),[29],-0.125
same,glycan array binding signal (z-score),[30],0.119
same,glycan array binding signal (z-score),[31],-0.258
same,glycan array binding signal (z-score),[32],-0.032
same,glycan array binding signal (z-score),[33],-0.16
